Residue numbers refer to the chain shown, from its start.
B1: CD3-PDL1-MSLN trispecific antibody 5Y3-16 (other)
light: [omitted - about 100 residues][omitted - about 100 residues]
heavy: EVQLVESGGGLVQPGGSLRLSCAASGFTFNTYAMNWVRQAPGKGLEWVARIRSKYNNYATYYADSVKGRFTISRDDSKSSLYLQMNSLKTEDTAVYYCVRHGNFGNNYVSWFASWGQGTLVTVSSASTKGPSVFPLAPSSKSTSGGTAALGCLVKDYFPEPVTVSWNSGALTSGVHTFPAVLQSSGLYSLSSVVTVPSSSLGTQTYICNVNHKPSNTKVDKKVEPKSCDKTHTCPPCPAPEAAGAPSVFLFPPKPKDTLMISRTPEVTCVVVDVSHEDPEVKFNWYVDGVEVHNAKTKPREEQYNSTYRVVSVLTVLHQDWLNGKEYKCAVSNKALPAPIEKTISKAKGQPREPQVYTLPPSRDELTKNQVSLWCLVKGFYPSDIAVEWESNGQPENNYKTTPPVLDSDGSFFLYSKLTVDKSRWQQGNVFSCSVMHEALHNHYTQKSLSLSPGGGGGSGGGGSGGGGSEVQLVESGGGLIQPGGSLRLSCAASGNIGSIRHMGWVRQAPGKERELVATITTVGTTYYANFVKGRFTISRDNSKNTLYLQMNSLRAEDTAVYYCRATAHPTDYWGQGTLVTVSS
chain: EVQLVESGGGLIQPGGSLRLSCAASGNIGSIRHMGWVRQAPGKERELVATITTVGTTYYANFVKGRFTISRDNSKNTLYLQMNSLRAEDTAVYYCRATAHPTDYWGQGTLVTVSSGGGGSDKTHTCPPCPAPEAAGAPSVFLFPPKPKDTLMISRTPEVTCVVVDVSHEDPEVKFNWYVDGVEVHNAKTKPREEQYNSTYRVVSVLTVLHQDWLNGKEYKCAVSNKALPAPIEKTISKAKGQPREPQVYTLPPSRDELTKNQVSLSCAVKGFYPSDIAVEWESNGQPENNYKTTPPVLDSDGSFFLVSKLTVDKSRWQQGNVFSCSVMHEALHNHYTQKSLSLSPGGGGGSGGGGSGGGGSEVQLVESGGGLVQPGGSLRLSCAASGGTFLTYGMGWFRQAPGKGLEFVAAINWSGSMTNYADSVKGRFTISRDNAKNTVYLQMNSLRAEDTAVYYCAAKTGAVAYIQKNEYDYWGQGTQVTVSS
notes: Trispecific, three chains, structure as for 5Y3-1
B2: CD3-PDL1-MSLN trispecific antibody 5Y3-4 (other)
light: [omitted - about 100 residues][omitted - about 100 residues]
heavy: B1 heavy
chain: EVQLVESGGGLIQPGGSLRLSCAASGNIGSIRHMGWVRQAPGKERELVATITTVGTTYYANFVKGRFTISRDNSKNTLYLQMNSLRAEDTAVYYCRATAHPTDYWGQGTLVTVSSGGGGSDKTHTCPPCPAPEAAGAPSVFLFPPKPKDTLMISRTPEVTCVVVDVSHEDPEVKFNWYVDGVEVHNAKTKPREEQYNSTYRVVSVLTVLHQDWLNGKEYKCAVSNKALPAPIEKTISKAKGQPREPQVYTLPPSRDELTKNQVSLSCAVKGFYPSDIAVEWESNGQPENNYKTTPPVLDSDGSFFLVSKLTVDKSRWQQGNVFSCSVMHEALHNHYTQKSLSLSPGGGGGSGGGGSGGGGSEVQLLESGGGLVQPGGSLRLSCAASGRTFSTNVMGWFRQAPGKGREFVSAISRAGSTYSADSVKGRFTISRDNSKNTLYLQMNSLRAEDTAVYYCAAGSSPTAIFGKSGMDYWGQGTQVTVSS
notes: as for B1
B3: CD3-PDL1-MSLN trispecific antibody 5Y3-3 (other)
light: [omitted - about 100 residues][omitted - about 100 residues]
heavy: B1 heavy with G68D, S87N, V95M, N107T, S114M
chain: B2 chain with P375A, R406L
notes: as for B1
B4: CD3-PDL1-MSLN trispecific antibody 5Y3-12 (other)
light: [omitted - about 100 residues][omitted - about 100 residues]
heavy: B1 heavy with G68D, S87N, V95M, N107T, S114M
chain: B2 chain with G405E
notes: as for B1
B5: CD3-PDL1-MSLN trispecific antibody 5Y3-1 (other)
light: [omitted - about 100 residues][omitted - about 100 residues]
heavy: B1 heavy
chain: B2 chain with P375A, R406L
B6: CD3-PDL1-MSLN trispecific antibody 5Y3-13 (other)
light: [omitted - about 100 residues][omitted - about 100 residues]
heavy: B1 heavy
chain: B2 chain with T392S, N393Y, G405E
notes: as for B1
B7: CD3-PDL1-MSLN trispecific antibody 5Y3-7 (other)
light: [omitted - about 100 residues][omitted - about 100 residues]
heavy: B1 heavy
chain: B2 chain with T392S, N393Y
notes: as for B1
B8: CD3-PDL1-MSLN trispecific antibody 5Y3-6 (other)
light: [omitted - about 100 residues][omitted - about 100 residues]
heavy: B1 heavy with G68D, S87N, V95M, N107T, S114M
chain: B2 chain
notes: as for B1
B9: CD3-PDL1-MSLN trispecific antibody 5Y3-15 (other)
light: [omitted - about 100 residues][omitted - about 100 residues]
heavy: B1 heavy with G68D, S87N, V95M, N107T, S114M
chain: B2 chain with T392S, N393Y, G405E
notes: as for B1
B10: CD3-PDL1-MSLN trispecific antibody 5Y3-8 (other)
light: [omitted - about 100 residues][omitted - about 100 residues]
heavy: B1 heavy with S80I, V95M, G102E, N103R, N107S, S114Y
chain: B2 chain with T392S, N393Y
notes: as for B1
B11: CD3-PDL1-MSLN trispecific antibody 5Y3-9 (other)
light: [omitted - about 100 residues][omitted - about 100 residues]
heavy: B1 heavy with G68D, S87N, V95M, N107T, S114M
chain: B2 chain with T392S, N393Y
notes: as for B1
B12: CD3-PDL1-MSLN trispecific antibody 5Y3-11 (other)
light: [omitted - about 100 residues][omitted - about 100 residues]
heavy: B1 heavy with S80I, V95M, G102E, N103R, N107S, S114Y
chain: B2 chain with G405E
notes: as for B1
B13: CD3-PDL1-MSLN trispecific antibody 5Y3-5 (other)
light: [omitted - about 100 residues][omitted - about 100 residues]
heavy: B1 heavy with S80I, V95M, G102E, N103R, N107S, S114Y
chain: B2 chain
notes: as for B1
B14: CD3-PDL1-MSLN trispecific antibody 5Y3-2 (other)
light: [omitted - about 100 residues][omitted - about 100 residues]
heavy: B1 heavy with S80I, V95M, G102E, N103R, N107S, S114Y
chain: B2 chain with P375A, R406L
notes: as for B1
B15: CD3-PDL1-MSLN trispecific antibody 5Y3-14 (other)
light: [omitted - about 100 residues][omitted - about 100 residues]
heavy: B1 heavy with S80I, V95M, G102E, N103R, N107S, S114Y
chain: B2 chain with T392S, N393Y, G405E
notes: as for B1
B16: CD3-PDL1-MSLN trispecific antibody 5Y3-10 (other)
light: [omitted - about 100 residues][omitted - about 100 residues]
heavy: B1 heavy
chain: B2 chain with G405E
notes: as for B1

target: T1, human MSLN on MC38/MSLN cells (human, UniProt Q13421 296-598); experiment: flow cytometry on MC38/MSLN cells (human MSLN)
T1 construct: whole, on cells; also called huMSLN; cells expressing MSLN

EC50 (read off the curve)	Binder
~2 nM	B1

target: T2, human CD3εγ (acrobiosystems, CDG-H52W5) (human, UniProt P07766 23-126; P09693 23-116); experiment: Carterra HC200M chip, antibody captured via anti-human IgG Fc, 1:1 model
T2 construct: Bought protein
T2 sequence (P07766 23-126, chain 1 of 2): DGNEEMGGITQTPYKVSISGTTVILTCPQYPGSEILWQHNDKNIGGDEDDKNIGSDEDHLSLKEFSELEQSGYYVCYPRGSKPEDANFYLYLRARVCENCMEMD
T2 sequence (P09693 23-116, chain 2 of 2, further chain): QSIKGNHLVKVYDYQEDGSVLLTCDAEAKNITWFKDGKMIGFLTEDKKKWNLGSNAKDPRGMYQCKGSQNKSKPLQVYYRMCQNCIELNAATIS

Kd	Binder
621 nM	B2
464 nM	B1
260 nM	B3
342 nM	B4
474 nM	B5
759 nM	B6
552 nM	B7
277 nM	B8
276 nM	B9
228 nM	B10
268 nM	B11
245 nM	B12
219 nM	B13
195 nM	B14
257 nM	B15
595 nM	B16

target: T3, hFc-tagged human MSLN recombinant protein (huMSLN-hFc, Kactus Biosystems, MSL-HM280) (human, UniProt Q13421 296-580); experiment: as above
T3 construct: Bought protein; also called huMSLN-Fc; human MSLN-Fc

Kd	Binder
4.6 nM	B2
7.98 nM	B1
4.65 nM	B3
4.24 nM	B4
4.58 nM	B5
4.38 nM	B6
4.53 nM	B7
4.52 nM	B8
8.21 nM	B9
4.3 nM	B10
4.18 nM	B11
4.38 nM	B12
4.66 nM	B13
4.66 nM	B14
8.38 nM	B15
4.45 nM	B16

target: T4, human PD-L1 protein (ACRO, PD1-H5258) (human, UniProt Q9NZQ7 in part); experiment: as above
T4 construct: Bought protein; also called Human PDL1-Fc

Kd	Binder
433 nM	B2
0.121 nM	B1
396 nM	B3
380 nM	B4
393 nM	B5
146 nM	B6
133 nM	B7
344 nM	B8
133 nM	B9
140 nM	B10
119 nM	B11
362 nM	B12
366 nM	B13
399 nM	B14
128 nM	B15
370 nM	B16

target: T5, human PD-L1 on CHO-huPDL1 cells (human, UniProt Q9NZQ7); experiment: flow cytometry blocking assay on CHO-huPDL1 cells; blocked ligand human PD-1-mFc, 1.25 ug/mL, detected with PE anti-mouse IgG Fc
T5 construct: whole, on cells; also called CHO-hPDL1
Text: After washing with PBS, a flow cytometer was used for detection. EC₅₀ was fitted with the experimental data by GraphPad Prism.

IC50 (read off the curve)	Binder
~0.6 nM	B1

target: T1, human MSLN on MC38/MSLN cells; experiment: flow cytometry on MC38/MSLN cells (human MSLN); remark: another data set of the same source
T1 sequence (Q13421 other isoform, or with tags, fused parts or gaps limits assumed): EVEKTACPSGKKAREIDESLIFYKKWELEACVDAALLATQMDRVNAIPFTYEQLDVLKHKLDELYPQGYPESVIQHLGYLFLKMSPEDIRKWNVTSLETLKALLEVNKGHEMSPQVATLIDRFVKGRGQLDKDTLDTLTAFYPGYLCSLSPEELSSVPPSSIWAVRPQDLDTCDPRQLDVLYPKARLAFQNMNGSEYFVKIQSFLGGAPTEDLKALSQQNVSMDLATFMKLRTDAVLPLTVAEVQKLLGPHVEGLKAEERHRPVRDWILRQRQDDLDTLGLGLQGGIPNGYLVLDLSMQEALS

EC50 (read off the curve)	Binder
~2 nM	B7
~2 nM	B8
~2 nM	B10
~2 nM	B11
~2 nM	B16

target: T5, human PD-L1 on CHO-huPDL1 cells; experiment: flow cytometry on CHO-huPDL1 cells
T5 sequence (Q9NZQ7 19-290): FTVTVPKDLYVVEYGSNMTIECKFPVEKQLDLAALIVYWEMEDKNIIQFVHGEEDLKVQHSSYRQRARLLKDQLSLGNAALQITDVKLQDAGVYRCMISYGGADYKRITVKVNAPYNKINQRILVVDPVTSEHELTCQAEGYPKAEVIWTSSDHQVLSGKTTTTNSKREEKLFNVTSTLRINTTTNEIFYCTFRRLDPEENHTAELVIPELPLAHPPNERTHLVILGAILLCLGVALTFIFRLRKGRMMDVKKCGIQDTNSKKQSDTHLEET
Text: After washing with PBS, a flow cytometer was used for detection.

EC50 (read off the curve)	Binder
~80 nM	B2
~0.6 nM	B1
~40 nM	B5
~50 nM	B7
~50 nM	B8
~20 nM	B13

target: CD3 on human Jurkat cells (ATCC TIB-152) (human); experiment: flow cytometry on Jurkat cells

EC50	Binder
38.3 nM	B2
31 nM	B1
15.5 nM	B3
12.4 nM	B4
24.9 nM	B5
36 nM	B6
47.8 nM	B7
38.2 nM	B8
11.9 nM	B9
26.2 nM	B10
23.4 nM	B11
12.7 nM	B12
13.4 nM	B13
52.9 nM	B14
9.31 nM	B15
50.9 nM	B16
